Laboratory results as given in the supplement of paper PMC11417369.
This is one part of the list.

tested on: PfHDP1 homeodomain (GST-tagged); experiment: gcPBM binding intensity (ln(normalized median fluorescence intensity)); higher = stronger DNA binding
Outline: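 Binding of GST-tagged P. falciparum DNA-binding domains, expressed in E. coli and used at about 25 μg on average, was carried out for 1 h in 1× PBS containing 1% milk, 0.2 mg/ml BSA, 0.5% salmon testes DNA and 0.03% Triton X-100. The target was an Agilent 4 × 180k array of primer-extended double-stranded 36-bp intergenic genomic probes plus negative controls, read with Alexa488 anti-GST antibody at 488 nm. Binding intensity is the highest Masliner-normalised natural-log median intensity across replicate spots of either probe orientation.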

| Sequence | gcPBM binding intensity (ln) |
| --- | --- |
| TTATAATGAAATATATTCTTATTCTTTTTTTTTTTT [GTGCAC_negctrl_site384] | 6.01 |
| TAAAATGTACAGGACGCACACACATATATATATATA [CACACA_site3673] | 9.25 |
| TTTTTTTTTTTTCATTGTACTCTTAAAAATTCAACT [XGTACX_site3154] | 6.24 |
| ATTAAAATTTAAAATACACACACATATATATAATAT [CACACA_site8612] | 6.97 |
| TATTTTTTTTTTTTTTTACACACTATAGGGAAAAAA [CACACA_site8583] | 6.38 |
| AACAACAACTAATATGCACACATTTAAAAACAAAAT [CACACA_site2440] | 9.7 |
| AAATAAAGCATGTGCTGTACAAACGAAATATTTAAG [XGTACX_site3146] | 6.92 |
| TGTCATGATACATACACACACATACCCATACCCATA [CACACA_site5211] | 6.72 |
| AACAAATGTTAAATGTTTAAGGAGAAAATAAAGACA [CACACA_negctrl_site1163] | 6.75 |
| AAAACGAAACATCTGTGTATAAGTCTATATTATTAT [XGTACX_negctrl_site301] | 6.39 |
| GAAAACATAAAAATATGTACTTAAAATATATTTTGT [XGTACX_site868] | 6.27 |
| TTTATGTGTATTAAGTGTACACATATAGTGTATTTT [XGTACX_site999] | 7.03 |
| ATATATAAGGAAAAAAGTACTTATATTTTTTTTTTG [XGTACX_site1909] | 5.95 |
| AGATTAAAATAATATAAACACACATATACTTTTTTC [CACACA_site8085] | 6.33 |
| ATAATTAAAAAAAATTGTACATATAAATAGAAGATT [XGTACX_site230] | 6.8 |
| TAGGTATGCTCTCAATGTACATAAAATAATTTTACT [XGTACX_site6556] | 8.1 |
| AAAAAAAAAAGAATAGCACACACACCGATATAAATA [CACACA_site8111] | 7 |
| TTTAAATACAGACATACACACATACACCCACATATA [CACACA_site8078] | 6.93 |
| TAAGAAATAAATAGTACACACATAGACACAGACACA [CACACA_site4934] | 7.04 |

| Sequence | gcPBM binding intensity (ln) |
| --- | --- |
| TGTTTTTATTTATTCTGTACTGAAGAGAGTTATATA [XGTACX_site8859] | 6.56 |
| GTATATGAGAAAAAAAGTACATGCACAAAATGTATA [XGTACX_site6441] | 7.96 |
| ATATAAATTTTTTATGAACACACAAATACAGACACT [CACACA_site8848] | 7.19 |
| AATACAAGAACTGACACACATACATACTACATTTTA [CACACA_site2829] | 6.81 |
| ATATTTATATATAGTAGTACTTTCAATAATTTAAAT [XGTACX_site7276] | 6.45 |
| AAAGAAAGAAGACACACACACATATATAAATATCAA [CACACA_site7715] | 6.73 |
| AAAAAATTAAAAATACGTACATATATACATATATAT [XGTACX_site4621] | 6.22 |
| TATGATATTTATATGCGTACTGAAGTATGCCTATTT [XGTACX_site6133] | 6.33 |
| TCTTAAAATATATAGGTGCAAAAAAAAAAAAAAAAA | 8.62 |
| ATATTCATGTTGATATGTACTTATTCTATATTGAAT [XGTACX_site8347] | 6.31 |
| ATCAGTGATTAGGTTATATATAAAAATGAACTAATA [GTGCAC_negctrl_site647] | 6.64 |
| TATATATATATATATATACACACTTGTGCAGAATAT [CACACA_site2216] | 9.87 |
| GATATTCTATAAAAAAGTACAAATATTTTAAAAAAT [XGTACX_site2177] | 6.2 |
| TAAATCCTTTACAACACACACACAAAAAAAAAAAAA [CACACA_site643] | 6.53 |
| AGCATTAATTATTTCACACATATATATATATATATA [CACACA_site4889] | 9.57 |
| TTTTTTTTTTTTTTTTTTTATGTATACATATTTATA [TGCATGCA_negctrl_site234] | 6.37 |
| TCATTTTAAAAAAATAGTACTTTAAGAAACTTTTAT [XGTACX_site602] | 6.48 |
| CCAAATTTATTTTGTAGTACTCCGTATAGATCAACA [XGTACX_site7945] | 6.27 |
| TGAGATATAAAAATATGTACTTATGTATAAATATTT [XGTACX_site7746] | 6.09 |

| Sequence | gcPBM binding intensity (ln) |
| --- | --- |
| ATTATAAAAATATATTGTACACAAAAATGTTTATAT [XGTACX_site5066] | 6.11 |
| AAGTTTTTTTTTAACACACACATAATAAAATAAATA [CACACA_site446] | 6.81 |
| TATATTTATATCCACTTCGTTTAACGCACAGATATA [CACACA_negctrl_site954] | 6.91 |
| TTTTAACAAAAAAAAAGAAAAGAAAAGAAAATAATA [XGTACX_negctrl_site530] | 6.12 |
| TTAACTCTGGAGAAAAGTACATAGTATCTGGTAACA [XGTACX_site4941] | 6.16 |
| TTGAAAAATGAGCACACACACAAATACATACATATT [CACACA_site3231] | 6.86 |
| CAAAAAACAACAGATCGTACAAAATATTATATATAT [XGTACX_site2285] | 7.23 |
| TATCCATATTTGTTCACACACACACCGATTTATATA [CACACA_site5888] | 7.17 |
| AGCATTTTAAGTTATACACACATTTTGAATCTATAT [CACACA_site7599] | 6.62 |
| TGGACAATTGTTTATTGTACTTAAATTTTATGTTCT [XGTACX_site8974] | 6.05 |
| AAGAAATAAAAAGAATGTACACAATATGTATTATAA [XGTACX_site4733] | 6.59 |
| ATAAATAAATAAATAAATAAATATACATATACATAT [CACACA_negctrl_site205] | 6.26 |
| ATGTTACACCGACACACACACATAAAAAAACAAAAA [CACACA_site5750] | 6.9 |
| AAATTATATATATTACGTACATAGAACTTTACAGAA [XGTACX_site6646] | 6.38 |
| TCTTATTCAAACGTAAAACGAAGAAGAAAAAAAAAA [CACACA_negctrl_site149] | 6.02 |
| ATATACTATATTTTAACACACAAAAAAAAAAAATAT [CACACA_site1091] | 6.62 |
| TTTTTTTTGTTCATTGTGCACATTGCTTGCATGGAA [GTGCAC_site9693] | 10.8 |
| AAAATAATAAATAAATGTACATATATATATATATAT [XGTACX_site3078] | 9.32 |
